Hit rate of the full screen: of about 44,000 compounds, about 340 (0.77%) were called active. Not shown: some 5% with an inconclusive outcome. The call rests on the fitted dose curve; in most records, active means well fitted inhibition curve with a large enough effect; inconclusive means small, poorly fitted or top-dose-only effect; inactive means flat fitted curve, though single readings scatter. Some of the results follow.
Test: Acumen qHTS Assay for Inhibitors of the mTORC1 Signaling Pathway in MEF (Tsc2-/-, p53-/-) Cells: Sytravon; further: nearly all actives have a fitted effect of over 50% in size
Details: phospho-rpS6 immunofluorescence/PI, 24 h; series mostly up to 38.3 µM; activity change, negative = inhibition: at the top concentration
Method in brief: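 Readout is phospho-S6 Alexa 488 signal normalized to PI per well, reported as % active cells with thresholds set from rapamycin (7.5 nM) and DMSO controls. Cells: Tsc2-/-, p53-/- MEFs, 24 hrs compound at 37 C; PI cell number serves as viability.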

Activity change, negative = inhibition, inactive:
CCOc1ccccc1C(=O)N(Cc1cc(OC)c(OC)c(OC)c1)c1ccccn1 -8.9%, COC(=O)CNC(=O)C1CCN(S(=O)(=O)c2cccc3nsnc23)CC1 1.75%, Cc1ccc(C(=O)c2c(N)c(C(=O)Nc3ccccc3Cl)c3ccccn23)cc1 -2.39%, CCOc1ccc(OCC(=O)NCCS(=O)(=O)N2CCN(c3ccccc3F)CC2)cc1 -13.3%, O=C(CN1C(=O)COc2ccc(Cl)cc21)Nc1cccc(F)c1 -7.02%, COc1ccc(S(=O)(=O)Nc2ccc(-c3ccc(N4CCCC4)nn3)cc2)cc1F 0%, Cc1sc2ncn(CC(=O)Nc3cccc(C(F)(F)F)c3)c(=O)c2c1S(=O)(=O)N1CCN(C)CC1 -4.44%, CC1=C(C(=O)Nc2ccc(C)cc2C)C(c2ccc([N+](=O)[O-])cc2)n2ncc(C(=O)Nc3ccc(F)cc3)c2N1 (stereo not drawn) -6.66%, Cc1ccc(-n2c(=O)c3c(cnn3C)n(CC(=O)Nc3ccc(C)cc3C)c2=O)cc1 7.83%, CN(c1ccc(F)cc1)S(=O)(=O)N1CCCC(C(=O)NCc2cccc(Br)c2)C1 (stereo not drawn) -20.7%, Cc1ccccc1Cc1c(C)nc2nc(SCC(=O)N(C)c3ccccc3)nn2c1C 8.68%, Cc1c(C(=O)N2CCC(C)CC2)c(S(=O)(=O)NCc2ccc(Cl)cc2)c(C)n1C 0%, CCN(CC)c1ccc2cc(-c3nc(-c4cccs4)no3)c(=O)oc2c1 4.13%, CC(=O)c1ccc(N2CCN(C(=O)CCC(=O)Nc3ccc4nc(N5CCCCC5)cc(C)c4c3)CC2)cc1 -8.12%, CC1CCN(S(=O)(=O)c2ccc3c(c2)c(=O)c(C(=O)NCCc2ccccc2)cn3C)CC1 -3.92%, COc1ccc(S(=O)(=O)NCCc2csc3nc(-c4cccc(C)c4)nn23)cc1F -9.05%, CCCCN1C(=O)c2[nH]nc(-c3ccccc3O)c2C1c1ccc(OCc2ccccc2)cc1 (stereo not drawn) -6.25%, COc1ccccc1NC(=O)CSc1nnc(NC(=O)Nc2ccc(C)cc2)s1 -19.2%, CN(C)CCNC(=O)c1ccc2c(c1)NC(=O)C(CS(=O)(=O)Cc1cccc(Br)c1)N2 (stereo not drawn) 0.31%, Cc1ccc(S(=O)(=O)N2CCCc3cc(NS(=O)(=O)c4cccc(Cl)c4)ccc32)cc1 4.16%, COc1ccccc1CNC(=O)c1c(O)nc2c(C)cccn2c1=O 5%, CCc1ccc(NC(=O)C2CCCN2S(=O)(=O)c2ccc3c(c2)n(C)c(=O)c(=O)n3C)cc1 (stereo not drawn) -11.1%, COc1ccccc1CNC(=O)CN(C)c1nn2c(=O)cc(C)nc2s1 1.7%, COc1ccc2c(c1)cc1c(=O)n(CC(=O)NC(C)C)nc(C)n12 -6.99%, CC(=O)c1ccc(NC(=O)CSc2nnc3ccc(-c4ccc(Br)cc4)nn23)cc1 -0.499%, COc1ccccc1NC(=O)CCC(=O)N1CC(C)Oc2ccc(C)cc21 (stereo not drawn) -7.46%, Cc1nn(-c2ccccc2)c2c1cc1c(=O)[nH]c(=O)nc-1n2-c1cccc(Cl)c1 0.242%, COc1ccccc1NC(=O)CSc1nnc(NC(=O)NC2CCCCC2)s1 -10.7%, Cc1ccc(CNC(=O)C2CCN(S(=O)(=O)c3cccc4nonc34)CC2)cc1 3.71%, Cc1cc(=O)c2cc(C(=O)Nc3ccc(C)c(C)c3)ccc2[nH]1 -1.46%, Cc1ccc2oc(C(=O)Nc3ccc(S(=O)(=O)N(C)c4ccccc4)cc3)cc(=O)c2c1 4.06%, CCc1ccc(NCc2cc3cc4c(cc3n(CC(=O)Nc3ccccc3OC)c2=O)OCCO4)cc1 -1.6%, Cc1cc(NC(=O)Nc2nnc(N(C)C3CCCCC3)s2)ccc1Br 1.2%, COc1ccc(C(=O)N2CCC(c3nc4ccccc4s3)CC2)cc1Cl -0.603%, Cc1ccc(S(=O)(=O)CCC(=O)Nc2ccc(OC(F)(F)F)cc2)cc1 2.98%, CCc1ccccc1NC(=O)Cn1c(=O)n(CCCCCC(=O)NCc2ccc(C)cc2)c(=O)c2sccc21 0.87%, O=C(c1ccc2c(c1)N(Cc1ccccc1F)C(=O)c1ccccc1S2(=O)=O)N1CCc2ccccc21 -2.63%, CCC(Sc1nc2ccncc2[nH]1)C(=O)Nc1cc(Cl)ccc1C (stereo not drawn) -8.69%, COc1cc(Cl)c(C)cc1NC(=O)CSc1nc2c(c(=O)[nH]1)CCC2 -2.47%, CCc1ccc(S(=O)(=O)c2nnn3c2nc(N2CCOCC2)c2sccc23)cc1 2.53%, CCOC(=O)c1cccc(NC(=O)CC2C(=O)N(c3ccc(Cl)cc3)C(=O)N2C2CCCC2)c1 (stereo not drawn) -8.8%, Cc1ccc(N2CC(c3nc(-c4ccc(Cl)cc4)no3)CC2=O)cc1F (stereo not drawn) 0%, Cc1cc(N2CCC(C(=O)Nc3ccc(F)cc3C)CC2)n2nc(C)c(-c3ccc(Cl)cc3)c2n1 -24.3%, Cc1cc(-c2ccccc2)n2nc(-c3ccc(Cl)cc3)cc2n1 -0.225%, Cc1cc(Br)ccc1NC(=O)C1CCCN(S(=O)(=O)c2cccc3nonc23)C1 (stereo not drawn) -16.2%, COc1ccc2cc3cc(C(=O)Nc4cc(C)c(Cl)cc4OC)oc3nc2c1 -3.47%, CC(=O)c1cccc(NS(=O)(=O)c2cc(-c3onc(C)c3C)ccc2C)c1 -13.9%, COc1ccc(NC(=O)CSc2oc(-c3ccc(F)cc3)nc2S(=O)(=O)c2ccc(C)cc2)c(OC)c1 -1.04%, Cc1sc2c(c1C)c(=O)n(-c1ccc(Cl)cc1)c(=O)n2Cc1cc(=O)n2cc(Br)ccc2n1 4.49%, COc1cc(Cl)c(NC(=O)c2cc(S(=O)(=O)N3CCCCC3)c[nH]2)c(OC)c1 -2.74%, CCOc1ccccc1NC(=O)CSc1nc2c(sc3ccccc32)c(=O)n1CCCC(=O)NC1CCCC1 -7.69%, COc1cc(NC(=O)C2CCN(S(=O)(=O)c3ccc4c(c3)CCCC(=O)N4)CC2)cc(OC)c1 -13.6%, CCOC(=O)c1c(S(=O)(=O)N2CCCC(C(=O)NCc3ccccc3Cl)C2)c(C)n(C)c1C (stereo not drawn) -11.7%, COc1cccc(CNC(=O)c2ccc(CNS(=O)(=O)c3ccc(C)cc3)cc2)c1 0.619%, CCN(c1ccccc1)S(=O)(=O)c1nnc(NC(=O)c2ccccc2)s1 6.27%, O=C(Nc1ccccc1)N(Cc1c[nH]c2ccccc12)C1CCCCCC1 -12.4%, Cc1cccc(OCc2nc(CC(=O)Nc3ccc(C)cc3C)cs2)c1 -2.13%, Cc1cccc(N2CCN(C(=O)c3cnn(-c4ccccc4Cl)c3C3CCN(C(=O)OC(C)(C)C)CC3)CC2C)c1 (stereo not drawn) 6.85%, COc1ccc(S(=O)(=O)NCCc2sc(-c3cccnc3)nc2C)c(F)c1 -7.35%, CCc1ccc(C2c3c(oc4ccc(F)cc4c3=O)C(=O)N2CCc2ccc(OC)cc2)cc1 (stereo not drawn) 13.2%, CC1CCc2c(sc3nnn(CCCCOc4ccc(Cl)cc4)c(=O)c23)C1 (stereo not drawn) -2.43%, COc1ccc(CNCCCSc2nnnn2-c2ccccc2)cc1 0.452%, CCOC(=O)c1c(NC(=O)c2cc(OCC)c(OCC)c(OCC)c2)sc2c1CCCCC2 1.04%, Cc1ccc(CNC(=O)Cn2c(=O)ccc3cc(S(=O)(=O)N4CCC(C)CC4)ccc32)cc1 -12.5%, COc1ccc(-c2cc(C(=O)NC(C)c3ccccc3)c3cc(C(C)C)ccc3n2)cc1 (stereo not drawn) 11.5%, CCN(CC)CCNC(=O)C(=O)NCC(c1cccnc1)N1CCN(c2ccc(F)cc2)CC1 (stereo not drawn) 3.44%, O=C(Nc1ccccc1C(F)(F)F)c1cc(-c2ccc3c(c2)OCCO3)on1 -1.14%, Cc1c(Cl)cccc1NC(=O)CNS(=O)(=O)c1cccs1 -1.2%, Cc1nc2sccn2c(=O)c1S(=O)(=O)Nc1ccc(N2CCOCC2)cc1 -4.73%, Cc1ccc(C2CCN(C(=O)Nc3ccc(Cl)cc3)C2)cc1 (stereo not drawn) 0.579%, Cc1cc(=O)[nH]c2nnc(SCc3c(F)cccc3Cl)n12 -1.69%, CCOc1ccc2c(c1)sc1nc(=O)n(-c3ccc(Cl)c(Cl)c3)c(=O)n12 8.54%, Cc1ccc(OCc2nc(-c3ccc(C(=O)N4CCN(c5cccc(C(F)(F)F)c5)CC4)cc3)oc2C)cc1 -0.865%, CSc1cccc(NC(=O)C2CCN(S(=O)(=O)c3ccc4c(c3)CCCN4C(=O)C3CCC3)CC2)c1 -10.2%, COc1ccc(N(CC(C)C)S(=O)(=O)c2nnc(NC(=O)c3cccs3)s2)cc1 -8.69%, Cc1cccc(NC(=O)c2ccc3c(O)c(S(=O)(=O)c4ccccc4)c(=O)[nH]c3c2)c1C 0.835%, Cc1ccccc1-c1nc(CS(=O)(=O)CC(=O)NCCc2ccccc2)c(C)o1 -0.942%, O=C(Nc1ccc2nc(SCC(=O)N3CCc4ccccc43)sc2c1)c1cccc(F)c1 -10.4%, COc1ccc(Cl)cc1NC(=O)CSc1nc2ccccc2c2nc(-c3ccccc3)nn12 -10.8%, Cc1ccc(C(=O)Nc2ccccc2)cc1S(=O)(=O)Nc1ccc(Br)cc1 8.37%, COCCNC(=O)CCn1c(=O)c2cc(OC)c(OC)cc2n(CC(=O)Nc2ccccc2C)c1=O 3.96%, CS(=O)(=O)NCC(c1ccco1)N1CCN(c2ccc(F)cc2)CC1 (stereo not drawn) -2.43%, O=S(=O)(c1ccc(-c2cc(C(F)(F)F)on2)s1)N1CCN(c2ccccc2)CC1 0%, COc1ccc(S(=O)(=O)N2CCN(Cc3ccc4c(c3)OCO4)CC2)cc1C -5.37%, Cc1cccc(C)c1NC(=O)C(=O)NCC(c1ccc2c(c1)OCO2)N1CCOCC1 (stereo not drawn) 0.54%, CCc1ccccc1NC(=O)Nc1cc(C(=O)NCc2cccc(F)c2)ccc1N1CCCC1 4.01%, CCOC(=O)c1c(NC(=O)COc2ccc(Br)cc2)sc2c1CCCC2 -14.4%, O=C(Cn1ncn2nc(-c3cccs3)cc2c1=O)NCc1ccc(Cl)cc1 -0.463%, CCc1ccc(S(=O)(=O)c2nnn3c2nc(Nc2ccc(C)c(Cl)c2)c2sccc23)cc1 0.19%, Cc1oc(-c2cccc(Cl)c2)nc1CN1CCCC(C(=O)NCCc2ccc(Cl)cc2)C1 (stereo not drawn) 0.436%, CCn1c(SCc2cccc(Br)c2)nnc1-c1nonc1NC(C)=O -15%, CC(C)CNC(=O)C(=O)Nc1c2c(nn1-c1ccccc1)CS(=O)(=O)C2 1.91%, CSc1cccc(NC(=O)Cn2c(=O)n(Cc3ccccc3)c(=O)c3sc4ccccc4c32)c1 -13.6%
